Some of the results follow. At the low end of the ranking the order means little.

In this assay the target is T1, GST-Rok-C97-191 (UniProt O34857).
T1 sequence: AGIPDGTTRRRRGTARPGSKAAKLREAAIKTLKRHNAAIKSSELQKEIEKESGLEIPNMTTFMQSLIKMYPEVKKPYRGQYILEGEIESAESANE
Kind of assay: protein binding microarray.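 Note: rank score from −0.5 (least bound) to 0.5 (best bound).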 The settings on record: Rok is a gene silencer of Bacillus subtilis; high values mean tight binding; most listed sequences are background and not binding sites; double strand, one strand shown.
In turn, GCTGTCAC came in with a binding signal of -0.189 E-score. AGAGCTTA: the binding signal was -0.114 E-score. For the sequence ACAGCGTA, the binding signal stood at 0.101 E-score. With GATACTAA, the binding signal amounted to 0.233 E-score.

As for CCAGTGGA, the binding signal is -0.251 E-score. Take ACATCCGG: the binding signal was 0.0877 E-score. In turn, AGCATCTA displayed a binding signal of 0.198 E-score. As to CGGAGTCA, the binding signal is -0.107 E-score.

As to AGGGTAGG, the binding signal was -0.0243 E-score. In turn, CTCATAAC showed a binding signal of -0.0354 E-score.

On to GCATATTA, for which the binding signal was 0.153 E-score. AGAGCCGA gave a binding signal of -0.233 E-score. GATTAAGC came in with a binding signal of 0.145 E-score. As for ACCCCGGC, the binding signal was -0.285 E-score. As for CCTCCACA, the binding signal is -0.0677 E-score. Sequence ATGCCGAG registered a binding signal of -0.113 E-score.

Take ACGGTTTG: the binding signal was -0.0416 E-score.

ACCGTACG: the binding signal was -0.000355 E-score. The value for AACACTAG was 0.125 E-score. Next, GCAACTCC: 0.0133 E-score; CGCCAGAC: -0.121 E-score; GAGAGCTC: -0.123 E-score. The sequence ATACGCCA registered a binding signal of 0.033 E-score.

On to CAATGGGC, for which the binding signal was -0.197 E-score. Sequence TAATCGGA came in with a binding signal of 0.0743 E-score. In turn, CACGTCCA came in with a binding signal of -0.231 E-score. Sequence GATGACAC had a binding signal of -0.148 E-score. The value for ACGGTCGC was -0.135 E-score; that for CGAGAGCG was -0.319 E-score. Turning to GGTCTTAA, the binding signal was -0.217 E-score.

Regarding CCGAGTTC, the binding signal was 0.0391 E-score. In turn, CGTAAGCA displayed a binding signal of -0.0659 E-score. Sequence CGTAACAC yielded a binding signal of 0.0617 E-score. Turning to ATTCGTAG, the binding signal turned out to be 0.152 E-score. Next, ACGATTAC: -0.0838 E-score; CTTAACAC: 0.151 E-score; AGACCAAA: -0.0391 E-score.

Sequence CTTTTTAC registered a binding signal of 0.3 E-score.

Turning to CTGCAGTC, the binding signal was -0.0762 E-score. CAACTCGG returned a binding signal of 0.202 E-score.

Take AGACGAAG: the binding signal was -0.137 E-score. The sequence GACATTCC gave a binding signal of -0.0274 E-score. Consider GGACCAGA, for which the binding signal was found to be 0.0586 E-score. The sequence CGGGAGCC had a binding signal of -0.132 E-score. The value for GGCAGGAC was -0.0735 E-score; that for ACATGGAT was 0.159 E-score; that for ACCCCCTC was -0.317 E-score. For ATACTTGC, the binding signal is 0.0477 E-score. Regarding AGCGGGCA, the binding signal was -0.09 E-score. AGTGAGGG showed a binding signal of -0.127 E-score. Next, GCACCGTA: -0.174 E-score. GTCCAACA registered a binding signal of -0.0545 E-score. Next, CAGTTCAC: 0.0789 E-score.

CCAGGCAC yielded a binding signal of -0.301 E-score.

ACCCTTAA registered a binding signal of -0.165 E-score. As to TCACCAGA, the binding signal is -0.0888 E-score. The sequence CAAACGAC displayed a binding signal of 0.0537 E-score. In turn, AACCCAAG registered a binding signal of -0.0339 E-score.

Regarding CGCCACTC, the binding signal was -0.211 E-score.

For AACCGAGT, the binding signal was -0.0232 E-score. AAAGAATT returned a binding signal of 0.0472 E-score. In turn, GACATGAC showed a binding signal of 0.173 E-score. Turning to AGAGGTTG, the binding signal is -0.0137 E-score. For the sequence AGGAGCGG, the binding signal is -0.128 E-score. GAGACTTA gave a binding signal of -0.17 E-score. As to GGGGCCAC, the binding signal is -0.307 E-score. On to AGCTACTA, for which the binding signal was 0.378 E-score. Next, ACAAGCCC: -0.119 E-score; CCATAGTA: 0.207 E-score; CTTTAGAA: 0.0135 E-score. In turn, CTATGTAA came in with a binding signal of 0.289 E-score. The value for AGATAAAC was 0.216 E-score; that for GTATTGCA was 0.174 E-score; that for ACCGCTTG was -0.107 E-score.

CTCCACAG displayed a binding signal of -0.18 E-score. Next, ATCTCGAG: 0.136 E-score; AACGCATT: 0.0482 E-score. Take CAGCCGGC: the binding signal was -0.219 E-score.

Take CACTGCGA: the binding signal came out at 0.123 E-score. Sequence CCTCGCGC had a binding signal of -0.28 E-score. For GAGGGGCA, the binding signal is -0.256 E-score. For CTCACTAA, the binding signal came to 0.0203 E-score. Turning to AGAGGGTC, the binding signal was -0.353 E-score. The sequence CTGAAGTA showed a binding signal of 0.147 E-score. The sequence ATCAGTAG yielded a binding signal of 0.285 E-score. CTAGTCTA had a binding signal of 0.197 E-score. The sequence CGCCCTAC showed a binding signal of 0.0104 E-score. In turn, CCGTGAAC displayed a binding signal of -0.0699 E-score.

In turn, GCACATCA displayed a binding signal of 0.0204 E-score. Regarding AGCCGAGG, the binding signal was -0.0773 E-score. ATACGACC returned a binding signal of 0.00262 E-score.

AATACGAA came in with a binding signal of 0.0453 E-score. Next, CCAGTCCA: 0.0334 E-score; AGATTGCA: 0.0596 E-score.

Sequence CCTTGACG had a binding signal of -0.169 E-score. With CAGGAAGA, the binding signal was -0.127 E-score. On to CAAACCAC, for which the binding signal was -0.131 E-score. With AAGATAGT, the binding signal stood at 0.243 E-score.

Sequence TGTGGGAA registered a binding signal of -0.075 E-score. AAGTACAC had a binding signal of 0.275 E-score. In turn, AATCGGCC showed a binding signal of 0.0325 E-score. The sequence CCACACGG came in with a binding signal of -0.148 E-score. Consider GGACCGCA, for which the binding signal was -0.213 E-score. Sequence TACTGGAA yielded a binding signal of 0.157 E-score. Turning to GAGCATGC, the binding signal was -0.135 E-score.

CGAACCGC showed a binding signal of -0.141 E-score. In turn, GAGAAATC displayed a binding signal of 0.0248 E-score. Turning to CTTAGTGC, the binding signal was -0.0654 E-score. ACACACGG gave a binding signal of -0.216 E-score.

Source of the values: paper PMC6212790.
